Tests used:
HCC202 = assay: Flow cytometry antibody binding (MCF), HCC202; details: 10 μg/ml antibody; HCC202, Breast
Method: Binding of humanized anti-EFNA4 antibodies huE22 and huE47 was assessed on EFNA4 expressing cells by flow cytometry. Adherent cells were dissociated using TrpLE Express (GIBCO cat #12604-021), neutralized with cell culture media and counted. Cells were plated into a U-bottom 96-well plate (BD Falcon cat #353077) with 5×10e5 cells/100 μL media/well. The plate was centrifuged at 300×g, 5 minutes, 4° C. to pellet cells and the supernatant was discarded. All reagents were kept on ice for the following steps. Each pellet was resuspended in 100 μL primary humanized anti-EFNA4 antibody (huE22 or huE47) or negative control antibody at 10 μg/mL in 3% BSA in PBS. The plate was incubated on ice for 30 minutes. The plate was centrifuged and the cell pellets were washed in 200 μL 3% BSA in PBS. Each cell pellet was resuspended in 100 μL of R-phycoerythrin (PE)-conjugated goat anti-human IgG Fc fragment (Jackson ImmunoResearch cat #109-115-098) that had been diluted 1:50 in 3% BSA in PBS. The plate was incubated on ice for 30 minutes. […] The samples were analyzed by flow cytometry using 5 μL 7AAD (B-D Pharmingen cat #51-68981E) per sample as a viability stain.
Endogenous EFNA4 expressing cancer cell lines were analyzed: Breast cell lines BT-483, HCC202 and MX-1, Chronic Lymphocytic Leukemia (CLL) cell line MEC1 and mantle cell lymphoma (MCL) cell line Z138.

Ephrin-A1 (EFNA1) = molecular target: T1, Ephrin-A1 (EFNA1) (Homo sapiens, UniProt P20827); assay: Direct ELISA binding specificity, Ephrin-A1; details: biotin-labeled antibody
T1 construct: His; purchased R&D
T1 sequence (P20827 19-182): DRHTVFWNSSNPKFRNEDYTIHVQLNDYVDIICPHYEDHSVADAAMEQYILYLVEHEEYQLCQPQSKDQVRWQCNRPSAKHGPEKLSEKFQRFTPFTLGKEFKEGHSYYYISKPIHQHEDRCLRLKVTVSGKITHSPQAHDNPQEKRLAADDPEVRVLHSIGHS
Method: (§1) Further properties were determined using ELISA to analyze the binding specificity of anti-EFNA4 antibodies huE22 and huE47 to Ephrin-A4 (EFNA4) along with homologous family members Ephrin-A1 (EFNA1) and Ephrin-A3 (EFNA3). Antibody binding was determined by direct ELISA with Ephrin-A1-His, Ephrin-A3-huFc, Ephrin-A4-huFc and Ephrin-A5-huFc (all from R&D) coated on BioOne Microlon (Greiner) plates in PBS overnight at 4° C. Biotin-labeled huE22 and huE47 were incubated on the plate for 2.5 hours at room temperature and Streptavidin HRP was used to develop signal from biotin labeled antibody in the absence of interfering human IgG signal.

HEK293T-EFNA4 cells [1] = assay: Flow cytometry antibody binding (MCF), HEK293T-EFNA4; design: species or system human; details: 10 μg/ml antibody; HEK293T-EFNA4, high expression of EFNA4
Method: Binding of humanized anti-EFNA4 antibodies huE22 and huE47 was assessed on EFNA4 expressing cells by flow cytometry. Adherent cells were dissociated using TrpLE Express (GIBCO cat #12604-021), neutralized with cell culture media and counted. Cells were plated into a U-bottom 96-well plate (BD Falcon cat #353077) with 5×10e5 cells/100 μL media/well. The plate was centrifuged at 300×g, 5 minutes, 4° C. to pellet cells and the supernatant was discarded. All reagents were kept on ice for the following steps. Each pellet was resuspended in 100 μL primary humanized anti-EFNA4 antibody (huE22 or huE47) or negative control antibody at 10 μg/mL in 3% BSA in PBS. The plate was incubated on ice for 30 minutes. The plate was centrifuged and the cell pellets were washed in 200 μL 3% BSA in PBS. Each cell pellet was resuspended in 100 μL of R-phycoerythrin (PE)-conjugated goat anti-human IgG Fc fragment (Jackson ImmunoResearch cat #109-115-098) that had been diluted 1:50 in 3% BSA in PBS. […] The samples were analyzed by flow cytometry using 5 μL 7AAD (B-D Pharmingen cat #51-68981E) per sample as a viability stain.
Antibody binding was measured in the manner described above for HEK293T parental cells, which express very low levels of EFNA4, and HEK293T-EFNA4 cells which are stable transfectants of HEK293T with a vector that enables high expression of human EFNA4.

HEK293T-EFNA4 cells [2] = assay: Phosphorylated histone H2A.X foci (DNA damage), HEK293T-EFNA4; format: cell-based, human; details: 0.3 μg/mL, four hours
Excerpt: Cells were visualized with a Zeiss LSM510 confocal microscope and analyzed for the y^− H2A.X biomarker of DNA damage and DNA content.

Ephrin-A3 (EFNA3) = molecular target: T2, Ephrin-A3 (EFNA3) (Homo sapiens, UniProt P52797); assay: Direct ELISA binding specificity, Ephrin-A3; details: biotin-labeled antibody
T2 construct: purchased R&D
T2 sequence (P52797 23-214): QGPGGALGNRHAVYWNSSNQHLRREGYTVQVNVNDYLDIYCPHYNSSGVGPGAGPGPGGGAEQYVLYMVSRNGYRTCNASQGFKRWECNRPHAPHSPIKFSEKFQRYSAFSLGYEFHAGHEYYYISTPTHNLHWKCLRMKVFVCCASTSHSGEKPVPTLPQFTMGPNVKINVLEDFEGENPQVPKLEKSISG
Method: as §1

[3] = In vitro stability in human plasma (ELISA total ADC); format: in vitro ADME; details: 37° C., mean (n=3), total ADC by ELISA
Method: Quantitation of the total ADC and total antibody, in plasma samples from pharmacokinetic studies in mice dosed with the ADC was determined using an enzyme-linked immunosorbent assay (ELISA) method. ELISA and liquid chromatography tandem mass spectrometry (LC-MS/MS) methods were also used to quantitate total ADC, total antibody and unconjugated payload from the exploratory toxicology studies in rat and monkey and in the in vitro plasma stability study with the ADC.
Total antibody concentrations could not be determined for the total ADC incubations in human plasma due to ELISA limitations of detection for a human IgG, in human plasma containing human IgG. […] NC=Not calculated; SD=Standard deviation.

[4] = test system: Ovarian-39 (OV39) ovarian cancer PDX; assay: In vivo efficacy, OV39 ovarian cancer PDX; design: species or system NOD/SCID mice (human tumor PDX)

B1: huE22 (antibody)
heavy: QVQLVQSGAEVKKPGASVKVSCKASGYTFTGYYIHWVRQAPGQGLEWMGWIYPGNFNTKYNERFKGRVTMTTDTSTSTAYMELRSLRSDDTAVYYCAREDGSPYYAMDYWGQGTSVTVSS[human IgG1 constant region omitted here]
VL: DIVMTQTPLSLSVTPGQPASISCRSSQSLVHSNGNTFLYWYLQKPGQSPQLLIYRVSNRFSGVPDRFSGSGSGTDFTLKISRVEAEDVGVYYCFQATHVPWTFGGGTKVEIK
- Mean Channel Fluorescent (MCF) (HCC202): 13.2
- binding to Ephrin-A1 (EFNA1) (Ephrin-A1 (EFNA1)): but not to EFNA1, EFNA3 or EFNA5
- Mean Channel Fluorescence (MCF) (HEK293T-EFNA4 cells [1]): 1521
- H2A.X foci (DNA damage) (HEK293T-EFNA4 cells [2]): no foci were observed
- binding to Ephrin-A3 (EFNA3) (Ephrin-A3 (EFNA3)): but not to EFNA1, EFNA3 or EFNA5

B2: huE22-AcBut-CM: huE22 conjugated via lysine residues to AcBut-N-acetyl-γ-calicheamicin dimethyl hydrazide (AcBut-CM) (conjugate)
heavy: B1 heavy
light: DIVMTQTPLSLSVTPGQPASISCRSSQSLVHSNGNTFLYWYLQKPGQSPQLLIYRVSNRFSGVPDRFSGSGSGTDFTLKISRVEAEDVGVYYCFQATHVPWTFGGGTKVEIKRTVAAPSVFIFPPSDEQLKSGTASVVCLLNNFYPREAKVQWKVDNALQSGNSQESVTEQDSKDSTYSLSSTLTLSKADYEKHKVYACEVTHQGLSSPVTKSFNRGEC
- % huE22-AcBut-CM remaining ([3]; 1 ug/mL, 0 hours): 100%
- % huE22-AcBut-CM remaining ([3]; 50 ug/mL, 0 hours): 100%
- % huE22-AcBut-CM remaining ([3]; 50 ug/mL, 168 hours): 82.9%
- mean tumor volume ([4]; 0.09 mg/kg, Day 0): 173 ± 18
- mean tumor volume ([4]; 0.09 mg/kg, Day 7): 355 ± 48
- mean tumor volume ([4]; 0.09 mg/kg, Day 14): 554 ± 80
- mean tumor volume ([4]; 0.09 mg/kg, Day 17): 609 ± 94
- mean tumor volume ([4]; 0.09 mg/kg, Day 21): 628 ± 97
- mean tumor volume ([4]; 0.09 mg/kg, Day 24): 614 ± 95
- mean tumor volume ([4]; 0.09 mg/kg, Day 28): 779 ± 123
- mean tumor volume ([4]; 0.09 mg/kg, Day 35): 934 ± 99
- % TGI ([4]; 0.09 mg/kg, OV39): 45% TGI
- mean tumor volume ([4]; 0.27 mg/kg, Day 0): 169 ± 21
- mean tumor volume ([4]; 0.27 mg/kg, Day 7): 378 ± 56
- mean tumor volume ([4]; 0.27 mg/kg, Day 14): 320 ± 73
- mean tumor volume ([4]; 0.27 mg/kg, Day 17): 252 ± 62
- mean tumor volume ([4]; 0.27 mg/kg, Day 21): 147 ± 28
- mean tumor volume ([4]; 0.27 mg/kg, Day 24): 118 ± 28
- mean tumor volume ([4]; 0.27 mg/kg, Day 28): 98 ± 25
- mean tumor volume ([4]; 0.27 mg/kg, Day 35): 67 ± 18
- mean tumor volume ([4]; 0.27 mg/kg, Day 42): 72 ± 23
- mean tumor volume ([4]; 0.27 mg/kg, Day 49): 170 ± 96
- mean tumor volume ([4]; 0.27 mg/kg, Day 56): 446 ± 337
- mean tumor volume ([4]; 0.27 mg/kg, Day 63): 940 ± 675
- mean tumor volume ([4]; 0.27 mg/kg, Day 70): 1194 ± 422
- Regression (TTP, Days) ([4]; 0.27 mg/kg, OV39): Regression (49) Days
